Measured values as given in the antibiotic and cytotoxicity screens of Wong et al. (2023).
Some of the results follow.

What follows are compounds tested on HSkMC (human skeletal muscle cells) (assay: cytotoxicity call (relative viability < 0.9)). Details: 10 µM.

Compound	cytotoxicity call
Cc1noc(C)c1S(=O)(=O)Nc1ccc2c(c1)C(=O)N([C@H](C)CO)C[C@H](C)[C@@H](CN(C)Cc1ccccc1)OCCCC[C@@H](C)O2	inactive
C=C(C(=O)O)[C@@H](CCCCCCOC(=O)C(=O)OCCCCCC[C@@H](C(=C)C(=O)O)C(=O)O)C(=O)O	inactive
C[C@H]1CCCCO[C@H](CN(C)C(=O)Nc2ccc(C(F)(F)F)cc2)[C@@H](C)CN([C@@H](C)CO)C(=O)c2cc(N(C)C)ccc2O1	inactive
O=C(C[C@@H]1C[C@H]2c3cc(NC(=O)Nc4ccccc4F)ccc3O[C@H]2[C@H](CO)O1)NCc1ccc(Oc2ccccc2)cc1	inactive
COc1ccc(S(=O)(=O)N(C)C[C@@H]2Oc3ccc(NS(=O)(=O)c4c(C)noc4C)cc3CC(=O)N([C@@H](C)CO)C[C@H]2C)cc1	inactive
Cc1noc(C)c1S(=O)(=O)Nc1ccc2c(c1)CC(=O)N([C@H](C)CO)C[C@H](C)[C@H](CN(C)Cc1ccncc1)O2	inactive
COc1cc2c(NC3CCN(C)CC3)nc(N3CCCN(C)CC3)nc2cc1OCCOCCN(C)C	inactive
CC(C)NC(=O)Nc1ccc2c(c1)CC(=O)N([C@H](C)CO)C[C@H](C)[C@@H](CN(C)S(=O)(=O)c1cn(C)cn1)O2	inactive
O=C1C[C@@](C(=O)NCc2ccccc2)(c2ccc([N+](=O)[O-])cc2)[C@@H](c2ccc(CO)cc2)N1CC12CC3CC(CC(C3)C1)C2	inactive
CC1(C)NC(=O)N(c2ccc([N+](=O)[O-])c(C(F)(F)F)c2)C1=O	inactive
C[C@H]1CCCCO[C@@H](CN(C)Cc2ccc3c(c2)OCO3)[C@@H](C)CN([C@@H](C)CO)C(=O)c2cc(NC(=O)Nc3cccc4ccccc34)ccc2O1	active
C[C@H](CO)N1C[C@H](C)[C@@H](CN(C)Cc2ccncc2)OCCCC[C@H](C)Oc2ccc(NC(=O)NC3CCCCC3)cc2C1=O	inactive
Cc1ccc(S(=O)(=O)N(C)C[C@H]2OCCCC[C@H](C)Oc3ccc(NC(=O)Nc4ccc(F)cc4)cc3C(=O)N([C@@H](C)CO)C[C@H]2C)cc1	inactive
C[C@@H]1CN([C@@H](C)CO)C(=O)c2cccc(NC(=O)Nc3ccc(C(F)(F)F)cc3)c2O[C@H]1CN(C)Cc1ccc(-c2ccccc2)cc1	inactive
CN(C)C(=O)[C@H]1[C@H](CO)[C@H]2Cn3c(ccc(C4=CCCC4)c3=O)[C@@H]1N2S(=O)(=O)c1cn(C)cn1	inactive
COc1ccc(NC(=O)N(C)C[C@H]2Oc3ccc(NC(=O)CCCCCC(=O)Nc4ccccc4N)cc3C(=O)N([C@@H](C)CO)C[C@H]2C)cc1	inactive
C[C@@H]1CN([C@@H](C)CO)C(=O)c2cc(NS(=O)(=O)c3cn(C)cn3)ccc2O[C@@H](C)CCCCO[C@H]1CN(C)S(=O)(=O)c1cccs1	inactive
Cc1ccnc(-n2c(C)ccc2C)c1	inactive
C[C@H]1CCCCO[C@H](CN(C)C(=O)C2CCCCC2)[C@@H](C)CN([C@@H](C)CO)C(=O)c2cc(NC(=O)Nc3ccccc3)ccc2O1	inactive
O=C(CCc1cn(-c2ccc(C[C@H]3C(=O)O[C@@H](Cc4ccccc4)[C@H]4[C@@H]5C=CCCC=C5CN43)cc2)nn1)NO	inactive
CNC(=O)C[C@@H]1CC[C@H]2[C@@H](COC[C@H](O)CN2C(=O)c2ccc3c(c2)OCO3)O1	inactive
Nc1nc(Cl)nc2c1ncn2[C@@H]1O[C@H](CO)[C@@H](O)[C@H]1O	inactive
C[C@@H]1CN([C@@H](C)CO)C(=O)CCCn2nncc2CO[C@H]1CN(C)C(=O)Nc1ccc2c(c1)OCCO2	inactive
COc1ccc(S(=O)(=O)Nc2cccc3c2O[C@@H](CN(C)Cc2ccc(Cl)c(Cl)c2)[C@H](C)CN([C@@H](C)CO)C3=O)cc1	inactive
Cc1ccc(O)c(C(C)(C)C)c1	inactive
Cc1ccc(S(=O)(=O)Nc2ccc3c(c2)C(=O)N([C@@H](C)CO)C[C@@H](C)[C@H](CN(C)C(=O)c2ccccc2)OCCCC[C@H](C)O3)cc1	inactive
CC12CCC3c4ccc(O)cc4CCC3C1CC(O)C2O (stereo not given)	inactive
C[C@H](CO)N1C[C@H](C)[C@@H](CN(C)Cc2ccc3c(c2)OCO3)Oc2ccc(NC(=O)Nc3cccc4ccccc34)cc2CC1=O	inactive
COCCNC(=O)C[C@@H]1C[C@H]2c3cc(NC(=O)COC)ccc3O[C@H]2[C@@H](CO)O1	inactive
C[C@@H]1CN([C@H](C)CO)C(=O)Cc2cc(NC(=O)C3CCCCC3)ccc2O[C@@H]1CN(C)Cc1ccc(Cl)c(Cl)c1	active
